# Laboratory results taken from the supplement of paper PMC3334620.
# In all, about 33,000 sequences were measured (“E-score (-0.5 to 0.5)”: median about -0.036, highest 2% from about 0.37 on). This is one part of the list.
# Biological target: T1, Yer064c (UniProt P40041)
# T1 sequence: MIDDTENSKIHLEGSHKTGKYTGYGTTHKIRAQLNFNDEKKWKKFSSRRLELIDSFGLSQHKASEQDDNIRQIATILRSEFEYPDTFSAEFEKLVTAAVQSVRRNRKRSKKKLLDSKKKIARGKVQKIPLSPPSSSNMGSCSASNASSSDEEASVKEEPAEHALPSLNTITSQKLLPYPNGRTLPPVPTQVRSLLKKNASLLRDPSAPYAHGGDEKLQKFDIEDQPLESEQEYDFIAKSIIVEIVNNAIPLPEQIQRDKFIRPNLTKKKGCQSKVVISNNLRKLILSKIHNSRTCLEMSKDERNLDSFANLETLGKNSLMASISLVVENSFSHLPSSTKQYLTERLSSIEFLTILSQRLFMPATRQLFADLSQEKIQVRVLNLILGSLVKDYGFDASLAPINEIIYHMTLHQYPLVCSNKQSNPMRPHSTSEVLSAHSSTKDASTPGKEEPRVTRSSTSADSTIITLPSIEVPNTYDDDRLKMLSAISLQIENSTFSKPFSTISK
# Assay: PBM E-score (8-mer binding enrichment) (E-score (-0.5 to 0.5)); higher = stronger / more preferred TF binding; most listed sequences are background and not binding sites
# Conditions: protein concentration: 200 nM; construct: GST-full length
# Procedure: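 Universal 'all 10-mer' protein binding microarrays (Agilent AMADID 015681) probed with GST-tagged S. cerevisiae TFs (full-length or DBD) made by in vitro transcription/translation (PURExpress), about 100-200 nM. Bound TF was detected with fluorescent anti-GST. Each ungapped 8-mer (which stands for itself and its reverse complement) is scored by the PBM enrichment score (E-score), a modified Wilcoxon-Mann-Whitney statistic from -0.5 to +0.5, computed with the Universal PBM Analysis Suite. Scale: above 0.35 generally sequence-specific binding.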
row,Sequence,PBM E-score
1,CCAATTTC,-0.181
2,CAGTAGCC,-0.116
3,AAATCGCT,-0.118
4,ACGGTCCA,-0.179
5,CCCCGCTC,-0.131
6,GCTATATA,0.00598
7,CGATCAAC,-0.117
8,ACCGCCCC,-0.0587
9,ACATCACG,-0.0358
10,TACACTAA,0.0746
11,ATGAGATG,0.0267
12,CTTTGCTC,0.0112
13,AAAGAGCC,-0.211
14,ATGGCCTG,-0.261
15,AGCTTAAG,-0.0387
16,TAGCTGAA,-0.0452
17,GTCTGCAC,-0.138
18,AGTTCCCG,-0.251
19,AGCAAGAA,-0.0714
20,AACTAGGC,-0.0546
21,CGCTTCCG,-0.297
22,CAGTCCTA,0.183
23,ACCGGACT,0.0887
24,GAGTTGAC,0.167
25,GAGCCAAC,-0.0982

row,Sequence,PBM E-score
1,CAGCGATG,0.0562
2,CATCAGAA,-0.0826
3,AGGGCTGC,-0.346
4,GAAACCCC,-0.187
5,ATTTCGGA,-0.0687
6,GTGTGTCA,0.089
7,GGGTTTGA,0.071
8,GGACACGA,-0.0272
9,ATAACAAT,0.0186
10,ACCCCCAC,-0.19
11,TAAGGGGA,-0.247
12,ATCATCGG,0.353
13,GCGCGTTA,0.0235
14,AGCGTCAA,-0.0122
15,AGAGTCAT,0.492
16,ACTTCGAA,0.166
17,ATTGACGC,-0.0348
18,GGGCGCAC,-0.321
19,CTCCCTAC,-0.0867
20,CAGTATCC,-0.119
21,CGGATAAC,0.00893
22,GAACCGAC,-0.0237
23,CGTGGTCA,0.221
24,ATAAAATG,0.0301
25,ACTCTGGC,0.0882

row,Sequence,PBM E-score
1,AATATTAC,0.0601
2,AGCGGGAT,-0.231
3,AAGGACCA,-0.026
4,ATATCGCA,-0.0521
5,GATATGGC,-0.175
6,ATTTCATG,0.0433
7,ATTGAGTA,0.282
8,CTGTTGGA,-0.0914
9,AGACAGAA,0.0973
10,CCGGGAGG,-0.302
11,CGAAATGA,0.184
12,CAGAAGGC,-0.176
13,GGAGACTA,0.375
14,ACAGATGG,-0.194
15,ACACGTGT,0.0605
16,ATGGTCGA,0.0686
17,AGGATGAC,0.32
18,GAACGTCA,-0.215
19,CCGCCAGC,-0.285
20,GGAAGAGA,-0.0994
21,CGGTATTA,0.0718
22,ATATACTA,0.0982
23,CAGAGCGG,-0.0725
24,CCTGCCTA,-0.214
25,AGTTGTTG,-0.141

row,Sequence,PBM E-score
1,CCCGTGTA,-0.226
2,TCAGTCGA,0.244
3,CCTGAGAA,0.0016
4,AAGAAACG,-0.028
5,GGCTACCC,-0.0673
6,GGATCCGA,-0.0154
7,ATTATCTA,0.198
8,AAAAAACA,0.0664
9,ACCCGGAC,0.0263
10,GTTATGCA,-0.00398
11,GACATGTC,-0.228
12,GAAGGCGA,-0.164
13,ATCATACC,0.264
14,AAAAGAGC,0.0186
15,CGTAACTA,0.00757
16,ATGTAGGA,-0.124
17,ATCGACAT,-0.0554
18,CGGTTTTC,-0.00995
19,AGTATATC,-0.00374
20,CGTTCGGC,-0.129
21,CGCATTAC,-0.161
22,GCTGCACC,-0.182
23,GAGGCCGC,-0.363
24,CCCGGAAC,-0.178
25,AACTGTAA,-0.0147

row,Sequence,PBM E-score
1,AGAGCTTA,-0.0296
2,ATCTCATA,0.0865
3,CTACCATC,-0.124
4,CGGACCCG,-0.0357
5,CGGGCTTA,-0.215
6,ACCTCATC,-0.0746
7,GCAAGGGA,-0.101
8,ACCTTCAC,-0.074
9,ATATTATC,-0.0585
10,GATTACAC,0.266
11,AGCGGGTG,-0.0663
12,CATAGCCA,0.0841
13,AGTCGCTA,0.371
14,CTAGGCCC,-0.335
15,CAAGTCCC,-0.149
16,GTGGGACA,-0.164
17,ATGTCCAC,-0.288
18,ATCCTATA,0.0379
19,CACTGAAA,0.00366
20,GACCGTAC,-0.191
21,CGATAATC,0.169
22,ACGTCACC,-0.162
23,AAATCAAC,0.114
24,CTCGCTCC,-0.123
25,ACACCAGG,-0.148

row,Sequence,PBM E-score
1,AATACGCA,-0.102
2,ACGCGGGC,-0.251
3,AGGTATTC,-0.149
4,GTCGCCTA,-0.0597
5,AGCGAGCA,-0.0821
6,CCACGGAC,-0.252
7,CGAGCCAA,-0.0784
8,CTTACCCC,-0.132
9,ACTTGTTG,-0.0377
10,CTCAGAAA,0.0849
11,AAGAGACG,-0.148
12,AGTACGCA,-0.0264
13,CGGCTCTA,-0.112
14,CAGACTAA,0.317
15,ATGTACCG,0.046
16,AAGGAGTG,-0.187
17,ACCAATAT,0.063
18,ACCTCGCA,-0.145
19,AACAGCAA,-0.0406
20,CGCCAAGC,-0.102
21,ACACACGC,0.0953
22,AACCGTGA,0.174
23,GAGACCTC,0.0495
24,CACGGTGA,0.0984
25,CTCGGCGC,-0.182

row,Sequence,PBM E-score
1,ACGCAATG,-0.116
2,CGGCCATA,-0.0901
3,ATAGCACC,-0.165
4,CGCCATAG,-0.163
5,CAGAGTCG,0.324
6,CAGCATAG,0.00792
7,ATGTAAAG,-0.0273
8,AGGTCTTA,0.0474
9,CGTCGGCC,-0.117
10,ATGACAAG,0.0335
11,GACTTGGC,0.0694
12,GAGCCTTA,-0.123
13,GTACGTAC,-0.014
14,GCAAAACA,-0.0508
15,GTCATTCA,0.247
16,AATACTAT,0.0492
17,CCCTCGAC,-0.201
18,ACCCGTAA,0.0128
19,CGCGGGGA,-0.0848
20,AAGATATA,-0.0424
21,ATCTATCA,0.0604
22,CCTGTGTA,0.205
23,CTGCAACA,-0.0766
24,AGAGCAAA,-0.098
25,CCAAGAGG,-0.262

row,Sequence,PBM E-score
1,CAGGAGAG,-0.248
2,AGGGTGTC,0.0904
3,AGAGATAC,-0.0567
4,AAGGAGGC,-0.402
5,ATAGAATA,0.089
6,CAAGACCA,-0.111
7,CCCCCTCG,-0.433
8,GTCTGCTA,0.0961
9,ATTATGGG,0.135
10,ACTTCTGC,0.0742
11,CATGACGC,-0.00343
12,GTTCAGAA,0.00278
13,AACATTCG,-0.107
14,AATTACCG,-0.0624
15,ACAGACCC,0.0828
16,TACCTGAA,0.086
17,AACAAGAA,0.12
18,AGTGGATG,-0.089
19,AAAGCCCG,-0.155
20,GTATTACA,-0.00195
21,CTGCGCGC,-0.0146
22,AACTATCA,0.104
23,CGGTGCCA,-0.377
24,ACGGCCTA,-0.212
25,AAAGGTGG,-0.103

row,Sequence,PBM E-score
1,TCCGCGCA,-0.11
2,ACCTGAGC,-0.121
3,ACGATTAA,0.26
4,ACTCAGAT,0.339
5,AGATGGCA,-0.164
6,TCTATTCA,0.129
7,AGCGGTCA,-0.0499
8,CATTCGGC,-0.121
9,GGCTGACA,-0.117
10,CGTACATA,0.0237
11,TACTTCTA,0.0324
12,AATACAGA,0.0731
13,ACGAGAGG,-0.32
14,AAGCCGAG,-0.155
15,ACCCGACT,0.233
16,GCGAATCC,-0.066
17,GACGCGAC,0.0301
18,GTTTTGTA,0.121
19,CTCCCTTC,-0.0477
